The test system of data set [1] is HL-60 human leukaemia cell line. Nature of the data set: cell viability assay. Type of data set: cell-based. The procedure:
(§1) Cells were grown in 96-well plates and treated with (A) CA-4 or (B) β-lactam compound 9q at 0.001–50 μM for 72 h. Cell viability was expressed as a percentage of vehicle control (ethanol 1% (v/v))-treated cells. The values represent the mean ± S.E.M. for three independent experiments performed in triplicate.
(§2) HL-60 cells were originally obtained from the ECACC.

The test system of data set [2] is SW-480 colon adenocarcinoma cell line. Nature of the data set: cell viability assay. Type of data set: cell-based. The conditions noted are these: Homo sapiens, SW480. The procedure: as §1, §2
Data set [3] in a line: HPLC stability under degradation conditions (acid, alkali, heat, light, oxidation). The note with it: for compound remaining: 4 h.
Data set [4] can be described thus: AlamarBlue cell viability in non-tumorigenic cells. Type of data set: cell-based. The note with it: human, HEK-293T cells. The procedure:
as §2
Figure 4 Antiproliferative activity of β-lactam compound 9q in human breast cancer MCF-7 cells and non-tumorigenic human embryonic kidney HEK-293T cells. MCF-7 and HEK-293T cells were grown in 96-well plates and treated with compound 9q at 0.1, 1 and 10 μM for 72 h.

In another data set the test system is MCF-7. The note with it: MCF7; one dose 10 µM, 48 h.
Data set [5] deals with HT-29 human colorectal adenocarcinoma cell line. Nature of the data set: cell viability assay. Type of data set: cell-based. The conditions noted are these: HT-29, 72 h. The procedure: as §1, §2
For a further data set, the system named is MCF-7 cells. Kind of data set: Cell cycle analysis, propidium iodide flow cytometry. The data set is classed as cell-based, human. The note with it: for sub-G0G1 (proapoptotic effect): vehicle 6%. The procedure:
MCF-7 cells were treated with compound 9q (at concentration of 50 nM and 500 nM) and incubated for 72 h. Cells (adherent and detached) were collected, trypsinised and centrifuged (800× g, 15 min). […] Fixed cells were centrifuged (800× g, 15 min) and stained with PI (50 μg/mL) containing DNase-free RNase A (50 μg/mL) at 37 °C for 30 min. The DNA content of the cells (10,000 cells/experimental group) was recorded by flow cytometry at 488 nm using a FACSCalibur flow cytometer (BD Biosciences, San Jose, CA, USA) and analysed using cellQuest software (BD Biosciences, San Jose, CA, USA).
MCF-7 cells were treated with either vehicle (0.1% ethanol (v/v)) or 9q (50 nM and 500 nM) for 24 h, 48 h and 72 h. The MCF-7 cells were then fixed and stained with propidium iodide, and the distribution was analysed by flow cytometry. Cell cycle analysis was obtained from histograms of gated counts per DNA area (FL2-A). The number of cells with <2N (sub-G1) (A), 2N (G0G1) (B) and 4N (G2/M) (C) DNA content was determined using CellQuest software. The results obtained represent the mean of three independent experiments performed.

pIC50: −log10 of the molar value. Where two headings read alike, the source gives them in different places.

Regarding `COc1ccc(/C=C\c2cc(OC)c(OC)c(OC)c2)cc1O` [CA-4, Combretastatin A-4, reference compound], the pIC50 (usually −log10 of the IC50, conventionally taken in molar units) in data set [1] (read-out: IC50) is 8.70; in data set [2] (SW-480, read-out: IC50) it was 8.15.

With `C=CCC1C(=O)N(c2cc(OC)c(OC)c(OC)c2)C1c1ccc(OC)c(O)c1` (centres unmarked) [10p, 4-(3-Hydroxy-4-methoxyphenyl)-1-(3,4,5-trimethoxyphenyl)-3-allylazetidin-2-one], the fraction remaining (commonly what is left of the initial amount, in per cent) at 4 h is 91.3% in data set [3] (1M HCl added to stock solution, % Remaining, 1M HCl (0.1 mL, 20 °C, 4h)); 91.3% in data set [3] (1M HCl added to stock solution, % Remaining, 1M HCl (0.2 mL, 50 °C, 4h)); 95.2% in data set [3] (1M NaOH added to stock solution, % Remaining, 1M NaOH (0.1 mL, 20 °C, 4h)); 82.1% in data set [3] (1M NaOH added to stock solution, % Remaining, 1M NaOH (0.2 mL, 50 °C, 4h)). This molecule also registered a fraction remaining at 6 h in data set [3] (30% H2O2 added to stock solution, % Remaining, Hydrogen peroxide (30 % H2O2, 0.2 mL), 20 °C, 6h) of 79%. Further, the compound remaining in data set [3] (UV light) worked out at 100%; in data set [3] (acidic (0.1 M HCl)) it was 91%; in data set [3] (alkaline (0.1M NaOH)) it was 95%; in data set [3] (heat (60 °C)), 100%; in data set [3] (oxidative (3% H2O2)) it was 79%. Besides, in data set [3] (solution in acetonitrile:water 80:20, daylight, % Remaining, Daylight (acetonitrile (80%):water (20%) 13 days)), the amount remaining at 312 h, 0.5 mg/mL is 100%. In data set [3] (stock solution in acetonitrile:water 80:20, heated, % Remaining, 80 °C (heating block, 5 h)), this molecule had a share remaining at 5 h, 0.5 mg/mL of 100%.

As to `C=C(C)C1C(=O)N(c2cc(OC)c(OC)c(OC)c2)C1c1ccc(OC)c(O)c1` (centres unmarked) [9q, 4-(3-Hydroxy-4-methoxyphenyl)-1-(3,4,5-trimethoxyphenyl)-3-(prop-1-en-2-yl)azetidin-2-one], the viability (commonly a per cent measure of how many cells are alive, often set against a control) at 72 h, 0.1 µM in data set [4] (0.1 μM) came to 83%. This molecule also yielded a viability at 72 h, 1 µM in data set [4] (1 μM) of 60%. The same molecule returned a viability at 72 h, 10 µM in data set [4] (10 μM) of 50%. Moreover, the “% Growth” value in the data set with MCF-7 amounted to 15.44%. For the same molecule, the pIC50 in data set [1] is 7.82; in data set [5] it was 6.15; in data set [2] it was 8.10. For the same molecule, the G0G1 cell population in the data set on MCF-7 cells (50 nM, 24 h) stood at 10%; with MCF-7 cells (50 nM, 48 h), 10%; in the data set with MCF-7 cells (50 nM, 72 h) it was 8%; in the data set on MCF-7 cells (500 nM, 24 h) it was 7%; in the data set with MCF-7 cells (500 nM, 48 h), 7%; with MCF-7 cells (500 nM, 72 h) it was 8%. The “sub-G0G1 (proapoptotic effect)” value in the data set with MCF-7 cells (50 nM, 72 h) is listed as 10%; in the data set with MCF-7 cells (500 nM, 72 h), 19%. Moreover, the G2/M population turned out to be 85% in the data set with MCF-7 cells (500 nM, 24 h); 81% in the data set with MCF-7 cells (500 nM, 48 h); 70% with MCF-7 cells (500 nM, 72 h); 72% with MCF-7 cells (50 μM (so in the source), 24 h); 69% with MCF-7 cells (50 μM (so in the source), 48 h); 70% in the data set on MCF-7 cells (50 μM (so in the source), 72 h).

These data come from publication PMC10385824, “Antiproliferative and Tubulin-Destabilising Effects of 3-(Prop-1-en-2-yl)azetidin-2-Ones and Related Compounds in MCF-7 and MDA-MB-231 Breast Cancer Cells” (Pharmaceuticals, 2023).
